About 230 (0.21%) of roughly 110,000 compounds showed an effect of 50% or more. Some of the results follow.
Biological target: DPAP1 (Plasmodium falciparum, UniProt Q8IIJ9)
Assay: primary screen, percent inhibition; read by cleavage of a fluorogenic dipeptide substrate; higher = more effect of the substance
Parameters: species or system P. falciparum D10 trophozoite lysates; single well
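Further: 30 min substrate incubation versus DMSO and 10 µM JCP410 controls.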

Chain of DPAP1 (Q8IIJ9 whole entry, looked up): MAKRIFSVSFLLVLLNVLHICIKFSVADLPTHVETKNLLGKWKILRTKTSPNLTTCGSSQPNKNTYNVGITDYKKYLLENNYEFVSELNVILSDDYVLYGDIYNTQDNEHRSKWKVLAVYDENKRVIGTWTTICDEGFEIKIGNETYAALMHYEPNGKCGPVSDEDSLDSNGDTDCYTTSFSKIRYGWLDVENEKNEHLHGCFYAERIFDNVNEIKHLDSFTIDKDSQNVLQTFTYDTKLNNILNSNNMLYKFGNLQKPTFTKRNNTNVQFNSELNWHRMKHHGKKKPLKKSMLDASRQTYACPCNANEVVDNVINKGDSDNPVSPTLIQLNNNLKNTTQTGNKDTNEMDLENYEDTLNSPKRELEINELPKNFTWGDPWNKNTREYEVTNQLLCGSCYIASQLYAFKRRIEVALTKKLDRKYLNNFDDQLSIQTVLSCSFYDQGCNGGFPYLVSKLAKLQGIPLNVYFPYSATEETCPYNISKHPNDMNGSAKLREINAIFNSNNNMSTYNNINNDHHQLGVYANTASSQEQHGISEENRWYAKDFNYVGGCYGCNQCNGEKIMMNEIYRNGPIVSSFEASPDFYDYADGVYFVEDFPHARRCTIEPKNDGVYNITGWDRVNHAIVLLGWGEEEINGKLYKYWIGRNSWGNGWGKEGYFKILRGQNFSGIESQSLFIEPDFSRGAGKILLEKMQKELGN

| SMILES | % Inhibition @ 10 uM [%] |
| --- | --- |
| CCc1cc2c(cc3c(=O)n(CC(=O)NCc4ccc(OC)c(OC)c4)ncn32)s1 | 3.29 |
| O=C(NC1(C(F)(F)F)N=C(c2ccccc2)NC1=O)C1CCCCC1 (centres unmarked) | 3.21 |
| CCC(C)N(CCNC(=O)Cn1c(=O)c2cccn2c2cccnc21)C1CCCCC1 (centres unmarked) | -2.1 |
| CCOc1c(NC2CCCCC2)c(=O)c1=O | 1.2 |
| Cc1ccccc1Cc1c(C)nc2nc(SCC(=O)NCC3COc4ccccc4O3)nn2c1C (centres unmarked) | -3.48 |
| Cc1nc2ccn(Cc3cccnc3)c(=O)c2cc1C(=O)NCCC(C)C | 0.234 |
| CCOc1ccc2sc(NS(=O)(=O)c3ccc(OC)c(OC)c3)nc2c1 | -1.94 |
| Cc1ccc2c(=O)c(C(=O)c3ccccc3)cn(CC(=O)NCCc3ccccc3)c2n1 | 3.03 |
| O=C1CC(c2ccc(Cl)c(Cl)c2)C2=C(CC(c3ccc(F)cc3)CC2=O)N1 (centres unmarked) | 3.67 |
| COc1cccc(-c2cn3c(n2)sc2cc(C(=O)NCCc4ccc(OC)cc4OC)ccc23)c1 | -1.78 |
| COc1ccc(CNc2nc(-c3cccs3)cc(C(F)(F)F)n2)cc1 | -1.31 |
| O=C1N=C(Nc2ccc(F)cc2)S/C1=C\c1cc2c(cc1Cl)OCO2 | 8.69 |
| Cc1cc(-c2ccc(C)c(S(=O)(=O)NCCc3cccs3)c2)on1 | -7.66 |
| C=CCn1c(SCC(=O)N2CCC(C)CC2)nnc1-c1ccccc1O | -3.53 |
| CC(C)N(CC#CCO)Cc1ccccc1 | -5.41 |
| Cc1cccc(Oc2ccc(C#N)c(C#N)c2)c1C | 1.63 |
| Cc1sc2ncnc(Nc3ccc(Cl)cc3Cl)c2c1C | -2.55 |
| CCOC(=O)N1CCC(N2CC(C)CC(C)C2)CC1 (centres unmarked) | -6.62 |
| O=C(NS(=O)(=O)c1cc2c(cc1Cl)NCNS2(=O)=O)c1ccc([N+](=O)[O-])cc1 | -2.15 |
| O=C(CSCc1cnn(-c2ccccc2)c1-n1cccc1)N1CCN(c2ccccn2)CC1 | -1.08 |
| CCOC(=O)c1cc(-c2ccc(F)cc2)n(CC(=O)Nc2nnc(SCC)s2)c1C | -0.176 |
| COc1ccc(C(=O)Cn2c(N(CCO)CCO)nc3c2c(=O)n(C)c(=O)n3C)cc1 | -1.46 |
| CC1(C)N=C(c2ccc(Cl)cc2Cl)C(=S)N1 | 0.559 |
| O=C(O)COc1ccc(Br)cc1 | -0.0372 |
| CCCCn1c(SCC(=O)c2ccccc2)nc2ccsc2c1=O | 3.86 |
| CCn1c2ccccc2c2cc(CN3CCN(c4ccc(OC)cc4)CC3)ccc21 | -2.81 |

| SMILES | % Inhibition @ 10 uM [%] |
| --- | --- |
| Cc1nccn1S(=O)(=O)c1cc(Cl)ccc1Cl | -1.99 |
| Cc1ccc(C)n1-c1ccc(NC(=O)c2ccccc2)cc1 | 3 |
| O=C(COc1ccc(Cl)cc1Cl)NCCc1ccccc1 | 5.02 |
| CCCCN(CCCC)CCNC(=O)C1CCN(S(=O)(=O)CC)CC1 | 3.79 |
| CC(C)c1ccc(CN2CCC(O)CC2)cc1 | 1.55 |
| CCCNC(=O)C1CCN(S(=O)(=O)c2cccc3nonc23)CC1 | -4.53 |
| O=C(NCCOc1ccc(F)cc1)c1cccc2ccccc12 | -8.38 |
| CC(=O)c1cnc2ncnn2c1C | 4.74 |
| O=C(Nc1cccnc1Cl)c1cc(-c2cccnc2)on1 | -10 |
| COc1ccc(C2C(C(=O)c3ccccc3)=C(O)C(=O)N2c2ccc(F)cc2)c(OC)c1 (centres unmarked) | -0.173 |
| Cc1ccccc1NC(=O)/C=C1/c2ccccc2CC(C)(C)N1C | -0.436 |
| N=C(Cc1cccc2ccccc12)NOC(=O)c1ccc(F)cc1 | 3.79 |
| CCCCCCN1C(=O)NC(=O)/C(=C\c2ccc(OC)cc2OC)C1=O | -5.96 |
| COc1ccc(NC(=O)c2cccc(S(=O)(=O)Nc3ccc(C(=O)O)cc3)c2)cc1 | 3.25 |
| Cc1nc2ccccc2n1CCc1nc2c3ccccc3nc(N3CCOCC3)n2n1 | 0.981 |
| CC(=O)c1c(O)cc(C)o/c1=N\c1ccccc1O | -4.41 |
| N#CC1=C2SCN(C3CCCCC3)CN2C(=O)CC1c1ccccc1F (centres unmarked) | 37.8 |
| C#CCOC(=O)c1cc([N+](=O)[O-])ccc1Cl | 3.53 |
| COc1cccc(C2C=C(c3ccc(C)cc3)Nc3ncnn32)c1OC(F)F (centres unmarked) | -3.37 |
| CCOc1ccccc1C(=O)Nc1c(-c2ccc(F)cc2)nc2ccccn12 | 0.813 |
| COc1ccc(Nc2cc(C)nc3c(C)ccc(N)c23)cc1 | -1.88 |
| Cc1cc(C)n(C(C)CC(=O)NCCc2ccccc2)n1 (centres unmarked) | -1.93 |
| COc1cc(/C=C2\SC(Nc3ccc(C)c(Cl)c3)=NC2=O)ccc1OCC(=O)O | 17.9 |
| Cc1ccc(CN2CCN(c3ccccc3F)CC2)cc1 | -3.77 |
| O=C(CCc1ccccc1)N1CCN(CCO)CC1 | 5.3 |
| COc1ccc(-c2nc3scc(CCNC(=O)c4c(F)cccc4F)n3n2)cc1 | -1.46 |

| SMILES | % Inhibition @ 10 uM [%] |
| --- | --- |
| Nc1cc(-c2ccccc2)nn1CC1CCCCC1 | 2.92 |
| CCOC(=O)c1cc(C)n(CC2CCC(C(=O)N3CCc4ccccc4C3)CC2)c1C (centres unmarked) | 0.967 |
| CC(C)c1ccc(OCC(=O)N(Cc2nc(-c3ccccc3)no2)C(C)C)c(Br)c1 | 1.1 |
| O=C(NCc1cccc(Cl)c1)c1cccn1-c1nnc(N2CCCCCC2)s1 | -6.58 |
| CC1(C)C(C=C(Cl)Cl)C1C(=O)NCCCOC(=O)Nc1ccccc1 (centres unmarked) | -9.73 |
| CCSc1nnc(NC(=O)CSc2nc3ccccc3[nH]2)s1 | 3.39 |
| CCCC(=O)NCCc1nc2ccccc2n1CCC | 3.41 |
| CC(Oc1ccccc1)C(=O)Nc1cccc(NC(=O)C(C)Oc2ccccc2)n1 (centres unmarked) | 0.843 |
| COc1ccc2c(c1)CCc1c(C(=O)Nc3cc(C)nn3-c3ccccc3)noc1-2 | 1.82 |
| COc1ccc(N2CCN(C(=O)CCn3cc(Br)cn3)CC2)cc1 | -2.09 |
| CCCc1cc(O)n2nc(-c3ccccc3)nc2n1 | 1 |
| Cc1ccc(C2Nc3cccc4cccc(c34)N2)s1 | -7.27 |
| Cc1ccn2cc(CNC(=O)c3ccccc3C(F)(F)F)nc2c1 | -3.51 |
| O=C(C1CCNCC1)N1CCN(Cc2ccc3c(c2)OCO3)CC1 | -4.78 |
| O/N=C/c1ccc(OCc2ccccc2)cc1 | 6.18 |
| CC1=C(C#N)C(c2ccc(O)cc2)C2=C(O)CC(C)(C)CC2=N1 (centres unmarked) | -0.305 |
| O=C1c2ccccc2C(=O)N1c1ccccc1[N+](=O)[O-] | -2.77 |
| CCO/C(O)=C(\C#N)c1ncc(-c2ccccc2)cn1 | 2.55 |
| CCOc1ccc(CNC(=O)Cn2ncn3c(cc4cc(F)ccc43)c2=O)cc1 | 0.0198 |
| CCOCCCNc1oc(/C=C/c2ccccc2OC)nc1C#N | -0.808 |
| O=C(ON1C(=O)c2ccccc2C1=O)c1cccs1 | 45.3 |
| N#Cc1ccc(-c2cccnc2)nc1SCc1ccccc1 | 61.4 |
| Cc1ccc2c(CNCCc3ccccc3C)c(C(=O)O)n(Cc3ccccc3C)c2c1 | -0.356 |
| COc1ccc(Cn2c(SCc3cc(=O)n4ccccc4n3)nc3ncccc3c2=O)cc1 | -3.44 |
| CN(C)c1ccc(/N=c2/sc3ccccc3n2C)cc1 | -3.71 |
| O=[N+]([O-])c1ccccc1-c1nc(-c2ccccc2)nc2ccccc12 | -0.687 |

| SMILES | % Inhibition @ 10 uM [%] |
| --- | --- |
| OC(c1ccccc1)(c1ccccc1)C1CCN(c2ccc3nnc(-c4ccccc4)n3n2)CC1 | -4.85 |
| CCCCCCNS(=O)(=O)c1ccc(C)c([N+](=O)[O-])c1 | -0.807 |
| CC(NC(=O)c1ccccc1)c1nc2ccccc2n1Cc1ccccc1F (centres unmarked) | 3.49 |
| Cc1c(C(c2ccccc2F)c2c(C)n(C)n(-c3ccccc3)c2=O)c(=O)n(-c2ccccc2)n1C | -1.25 |
| CC(C(=O)O)c1cccc2c1sc1ccccc12 (centres unmarked) | 10.2 |
| COc1ccc(CCN(C)Cc2ccccc2C(F)(F)F)cc1OC | 3.85 |
| C=CC1(O)CCN(S(=O)(=O)c2ccccc2)c2cc(OC)ccc21 (centres unmarked) | 0.408 |
| O=C(Nc1ccc(S(=O)(=O)NC2CCCCC2)cc1)c1cccs1 | -12.5 |
| c1ccc2c(c1)CCN(Cc1ccc3c(c1)OCO3)C2 | 3.1 |
| CCOC(=O)C1=C(C)OC(N)=C(C#N)C1c1ccc(Cl)cc1 (centres unmarked) | -0.197 |
| COC(=O)C1=C(N)Oc2cc(C)n(Cc3ccccc3)c(=O)c2C1c1ccccc1Cl (centres unmarked) | -1.11 |
| O=S(=O)(Nc1ccc(Br)cc1F)c1cccc(C(F)(F)F)c1 | -7.33 |
| CCN1CCCC1CNC(=O)CS(=O)(=O)Cc1nc(-c2ccc(C)cc2)oc1C (centres unmarked) | -1.89 |
| CCS(=O)(=O)C1=NSC2=NC(=O)/C(=C\c3ccc(-c4cccc(Cl)c4)o3)C(=N)N21 | 5.06 |
| Cc1ccc(SCCc2ccccn2)cc1 | -3.14 |
| COc1cc(OC)cc(-n2nnc(-c3nsc(NC(=O)c4ccc(C)c(C)c4)n3)c2C)c1 | -4.94 |
| O=C(Nc1cccnc1)c1nc(-c2ccc(Cl)cc2)n2c1CCCCC2 | 4.17 |
| CN1CCN(C)CC(OC(c2ccccc2)c2ccccc2)C1 | -0.312 |
| CCCCN/C=C1/C(=O)NC(=S)N(c2ccccc2C)C1=O | 5.68 |
| CN(C)c1ccc(C(O)c2nccn2C)cc1 (centres unmarked) | 3.22 |
| CC(=O)NS(=O)(=O)c1cnccc1Sc1cccc(C(F)(F)F)c1 | -3.56 |
| O=C(c1ccco1)N1CCN(C2CCC(c3ccccc3)CC2)CC1 (centres unmarked) | -0.274 |
| Cc1c(C(=O)N(C)Cc2ccccc2)sc2ncn(CC(=O)N3CCCCC3)c(=O)c12 | -0.458 |
